Source: publication PMC9870916
These are yes or no findings as the source states them, for the method shown. Binding seen in cells or lysates may run through a third protein. Some binding calls cover weakened binding; strength is not graded here. Sequences can lack the tags named with a protein.

Chains of the proteins cited; added tags and fusions are not shown. Residues count along the entry.
UniProt P30405, residues 30-207: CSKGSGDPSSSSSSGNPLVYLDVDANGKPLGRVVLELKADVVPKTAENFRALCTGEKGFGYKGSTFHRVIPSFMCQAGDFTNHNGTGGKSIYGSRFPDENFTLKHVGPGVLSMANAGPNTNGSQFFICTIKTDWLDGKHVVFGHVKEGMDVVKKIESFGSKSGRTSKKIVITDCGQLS

Biological target: T1, ATP synthase oligomycin sensitivity conferring protein (OSCP) (human (endogenous in HeLa)) (UniProt P48047)
T1 sequence: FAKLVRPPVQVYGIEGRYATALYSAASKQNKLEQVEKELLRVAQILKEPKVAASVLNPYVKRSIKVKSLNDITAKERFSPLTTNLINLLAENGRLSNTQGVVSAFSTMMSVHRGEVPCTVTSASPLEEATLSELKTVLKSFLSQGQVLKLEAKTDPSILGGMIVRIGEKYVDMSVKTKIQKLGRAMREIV
Experiment: proximity ligation; Duolink In Situ Red; CTR and IF1 KO HeLa cells fixed with 2% paraformaldehyde, permeabilized with 0.15% Triton X-100; pairs of mouse and rabbit primary antibodies; red dots per nucleus

binding: binds
Substance: cyclophilin D (CyPD) (from UniProt P30405 30-207)
